Data as given in the supplement of paper PMC3334620.
Over roughly 33,000 sequences, “E-score (-0.5 to 0.5)” has its median near -0.012; the highest 2% begin near 0.29. Some of the results follow.

molecular target: T1, Ybr033w (UniProt P38073); assay: PBM E-score (8-mer binding enrichment) (E-score (-0.5 to 0.5)); higher = stronger / more preferred TF binding; most listed sequences are background and not binding sites; details: protein concentration: 200 nM; construct: GST-full length
T1 sequence: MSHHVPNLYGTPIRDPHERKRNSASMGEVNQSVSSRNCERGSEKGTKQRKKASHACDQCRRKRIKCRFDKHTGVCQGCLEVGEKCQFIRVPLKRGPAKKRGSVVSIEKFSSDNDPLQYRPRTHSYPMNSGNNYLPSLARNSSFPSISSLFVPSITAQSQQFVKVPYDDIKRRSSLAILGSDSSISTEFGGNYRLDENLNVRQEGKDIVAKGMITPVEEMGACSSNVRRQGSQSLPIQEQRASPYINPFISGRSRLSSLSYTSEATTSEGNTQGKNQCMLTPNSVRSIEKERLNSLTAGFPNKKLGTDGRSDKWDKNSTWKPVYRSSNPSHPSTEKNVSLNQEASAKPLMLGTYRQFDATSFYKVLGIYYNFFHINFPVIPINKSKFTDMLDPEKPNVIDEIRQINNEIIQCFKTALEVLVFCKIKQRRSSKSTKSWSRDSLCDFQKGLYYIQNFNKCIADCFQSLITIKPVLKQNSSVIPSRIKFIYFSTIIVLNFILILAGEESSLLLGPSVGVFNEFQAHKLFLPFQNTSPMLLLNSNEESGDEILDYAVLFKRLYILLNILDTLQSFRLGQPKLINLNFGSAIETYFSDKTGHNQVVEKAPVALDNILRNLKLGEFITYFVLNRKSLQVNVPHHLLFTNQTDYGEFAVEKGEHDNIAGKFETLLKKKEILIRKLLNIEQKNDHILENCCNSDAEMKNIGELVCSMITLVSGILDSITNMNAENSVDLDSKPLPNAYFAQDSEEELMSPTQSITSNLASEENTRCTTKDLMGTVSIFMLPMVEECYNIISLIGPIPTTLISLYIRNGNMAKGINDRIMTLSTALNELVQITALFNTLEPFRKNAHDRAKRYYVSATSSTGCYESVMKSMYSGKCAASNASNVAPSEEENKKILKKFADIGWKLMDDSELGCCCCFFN
How it was run: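 Using PURExpress in vitro transcription/translation, GST-tagged yeast transcription factors were made in full-length or DNA-binding-domain form. These were applied at about 100-200 nM to double-stranded universal all-10-mer Agilent arrays, and bound protein was detected with fluorescent anti-GST. Scans were normalised with masliner before the Universal PBM Analysis Suite assigned E-scores to ungapped eight-base words pooled with their reverse complements.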

| Sequence | PBM E-score |
| --- | --- |
| AGGATCCT | -0.0773 |
| CTGTACAG | 0.0953 |
| CTTTGGGA | 0.0787 |
| CGAAGCTA | 0.0437 |
| GCAACAAA | 0.153 |
| CGCCTCTA | -0.0522 |
| CCGACAGA | 0.161 |
| CCCCACAA | -0.229 |
| ATGCTTGC | -0.0843 |
| ACATTACG | 0.0344 |
| CCTCGGGC | -0.251 |
| AACGACGG | 0.0565 |
| CGCGAGTA | 0.00596 |
| ACGGAGGA | -0.217 |
| CCACATTA | 0.0151 |
| CATTGTGA | 0.0401 |
| AAACTGTG | 0.166 |
| GGCCTCAC | -0.213 |
| AGGCGCTC | -0.241 |
| GATGACAA | 0.0655 |
| GCGAACAC | -0.209 |
| CCTTGCAG | -0.225 |
| TAACTCAA | 0.172 |
| ATATGCGA | 0.196 |
| ATCTGCTG | -0.0498 |

| Sequence | PBM E-score |
| --- | --- |
| CCAGGGGC | -0.399 |
| CTCCCCCA | -0.28 |
| CTCACCTC | -0.171 |
| AAAGCTAT | 0.192 |
| CTGGAAGC | -0.1 |
| AATGCACC | 0.0608 |
| CATAGAGC | -0.133 |
| AATTAACC | 0.158 |
| ATACGACA | 0.118 |
| ATAAGAAT | 0.18 |
| AGCAACGC | -0.115 |
| AAAGGCCA | -0.134 |
| ACCAGTAA | 0.118 |
| ACATTACA | 0.256 |
| GATCCATA | 0.0143 |
| ACTGACTC | -0.00303 |
| GAACGCCA | -0.133 |
| TGCTTGAA | 0.222 |
| ACCCGGTA | 0.0125 |
| CTGGGTTA | -0.00774 |
| CAAGTGAC | -0.0343 |
| CTGAGGTC | -0.321 |
| CCTCTTGC | -0.238 |
| GAGGTTCC | -0.153 |
| CGAGTCAG | -0.078 |

| Sequence | PBM E-score |
| --- | --- |
| CTATACCA | 0.0571 |
| AACTTGAT | 0.333 |
| AGTAGTAT | 0.185 |
| GGACGTAC | -0.268 |
| ACAGCAGC | 0.0657 |
| CACTCCAG | -0.0494 |
| CAGCTGAG | -0.0513 |
| CGACGGCG | -0.264 |
| CGCCAATA | 0.0874 |
| ACTTACCT | -0.046 |
| AATGCCTA | 0.09 |
| GAAGTAAA | 0.229 |
| TCATGGGA | -0.186 |
| AGTGAGAC | -0.0339 |
| CTAGGCGC | -0.209 |
| CTGAACCA | -0.0718 |
| TGAATCCA | 0.0977 |
| GTCCAAAA | 0.122 |
| AATCGTGC | 0.137 |
| CAACGAGC | -0.22 |
| AAAAAGTC | 0.22 |
| AACGACAT | 0.095 |
| TGCAGACA | -0.104 |
| CTTTCAGA | 0.0473 |
| AAGGCTGC | -0.0229 |

| Sequence | PBM E-score |
| --- | --- |
| ACCAGACA | -0.136 |
| CTAGTCGA | -0.163 |
| GACCATGA | -0.23 |
| CACGGTAC | -0.237 |
| CATTATCC | 0.224 |
| AAAGATGG | -0.00628 |
| GCGTTCTA | 0.0618 |
| GAGCATGA | -0.17 |
| GAAGTATA | 0.136 |
| CCTGCACC | -0.287 |
| TCTTGACA | 0.103 |
| ACTAAGTG | 0.0969 |
| CGGGCGTA | -0.263 |
| CGGTCTAA | -0.0696 |
| GAGGAGCA | -0.226 |
| ATCGTTTC | 0.184 |
| CCAGAACA | 0.0782 |
| AAAACTAG | 0.0807 |
| GCAAAGCC | -0.293 |
| CGATGTTC | 0.0131 |
| GGTCCGGA | 0.141 |
| GAACAAGA | 0.214 |
| ATTGGTGC | 0.0298 |
| GCGGCGCA | -0.192 |
| TAATAATA | 0.33 |

| Sequence | PBM E-score |
| --- | --- |
| CTATACAA | 0.177 |
| CGGAGCGC | -0.216 |
| GTTCTGAA | 0.0178 |
| CAGCACCA | -0.169 |
| TAGGCTCA | -0.226 |
| CAGATCCG | -0.0592 |
| AAATAGCC | 0.00071 |
| CACAACTG | -0.146 |
| CTTGGAAC | 0.139 |
| GGCAGCAC | -0.151 |
| CTCCATGC | -0.0903 |
| CCGATCGG | -0.27 |
| AATCCGCC | 0.0486 |
| AAATGCTT | 0.0626 |
| ATCCAGAT | 0.108 |
| TCAGCACA | 0.153 |
| ACGGATGA | 0.101 |
| CCCCTTCA | -0.238 |
| ACGTTAGT | 0.0756 |
| GGCTAGGA | -0.106 |
| GTTCGGAA | 0.316 |
| GCGTACCA | 0.00593 |
| AGTGGCGC | -0.16 |
| GGCAGACC | -0.308 |
| GAGTCGGC | -0.163 |

| Sequence | PBM E-score |
| --- | --- |
| AGGGTGTG | 0.0199 |
| ACCTTCGT | 0.0542 |
| CTCTTTCA | 0.0712 |
| CGTCAGAA | -0.0873 |
| AACCTGGT | 0.0823 |
| ACTAGCCT | 0.113 |
| ACACCCCT | -0.111 |
| ACCAGGAA | 0.112 |
| CAATCTGA | 0.0393 |
| CAGCTCAC | -0.25 |
| CTTTGTCC | 0.0971 |
| ACCCCGCC | -0.109 |
| ACCAACAG | -0.0816 |
| CCCGCCCA | -0.153 |
| TAGGCGAA | 0.00856 |
| AGGACCTA | 0.12 |
| AACAACGA | 0.15 |
| CAGGGCGG | -0.228 |
| AATGACAA | 0.189 |
| AGGTCACA | -0.181 |
| GCGGTCAC | -0.0802 |
| ACAGAGAG | -0.16 |
| AGCGTCGG | -0.128 |
| TAATACCA | 0.18 |
| AACTTCTA | 0.178 |

| Sequence | PBM E-score |
| --- | --- |
| CCAGTTTA | 0.0226 |
| ACGAGACC | 0.0956 |
| CGCAGGCG | -0.314 |
| CCTCGTAA | -0.0544 |
| AGCGATAG | -0.186 |
| CCATGTTA | 0.0981 |
| AGGTGTGA | -0.0514 |
| AGAGACGG | -0.00835 |
| ATAGCAAC | 0.0875 |
| AAGAGGGA | -0.0851 |
| TCGCCGCA | -0.153 |
| CGACGCAA | -0.0543 |
| ACTAGTGG | -0.00318 |
| AGTCTGTC | -0.0266 |
| TCCGGCCA | -0.00525 |
| ATCTCGCC | -0.172 |
| CGCATCAC | -0.019 |
| ATACGTTG | 0.0269 |
| TAATTTGA | 0.126 |
| CATGTCGA | 0.0206 |
| TACTTATA | 0.12 |
| AAAGATCT | -0.0762 |
